# The list shows a part of the results.
# Target: T1, MBP-FoxP1dN (Mus musculus, UniProt P58462 326-579)
# T1 sequence: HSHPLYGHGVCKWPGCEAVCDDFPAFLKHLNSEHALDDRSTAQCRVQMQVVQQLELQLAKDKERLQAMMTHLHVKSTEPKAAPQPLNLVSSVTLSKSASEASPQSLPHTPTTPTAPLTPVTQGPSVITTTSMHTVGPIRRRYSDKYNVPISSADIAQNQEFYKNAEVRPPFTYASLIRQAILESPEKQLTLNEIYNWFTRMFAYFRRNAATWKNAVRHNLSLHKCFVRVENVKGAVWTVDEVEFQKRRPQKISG
# Experiment: PD-seq (MBP pull-down with sequencing); 20 mM Tris-HCl pH 7.5, 100 mM NaCl, 1.5 mM MgCl2, 0.4 uM protein, 0.1 uM dsDNA library, 30 min, room temperature, amylose pull-down; high values mean tight binding
# Conditions: protein: recombinant; tags: His6-MBP; chain copies: 2; dsDNA, one strand shown
# In short: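 Protein and DNA were mixed at 0.4 µM and 0.1 µM and held for 30 min at room temperature in Tris pH 7.5 buffer with NaCl and MgCl2; the protein was a His6-MBP-tagged, N-terminally truncated mouse FoxP3 or FoxP1 fragment from E. coli, and the DNA a Klenow-filled double-stranded degenerate library. Amylose resin captured the complexes, which were washed three times. Binding is read as reads-per-million enrichment of pull-down versus input after Illumina sequencing, with replicates pooled.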
row,Sequence,binding signal
1,GATGATTGTTCTCCCAGCTGATGAATTGCAAGGATCGAGTAAACAAATTTTCCTAATCTTTCTGTTCAAGCGCCATCTAC,0.989 RPM ratio (pull-down/input)
2,GATGATTGTTCTCCCAGCTGATGAATTCCATTTGTCGAGTAAACAAATTTTCCTAATCTTTCTGTTCAAGCGCCATCTAC,0.974 RPM ratio (pull-down/input)
3,GATGATTGTTCTCCCAGCTGATGAATTGCACCGGTCGAGTAAACAAATTTTCCTAATCTTTCTGTTCAAGCGCCATCTAC,0.989 RPM ratio (pull-down/input)
4,GATGATTGTTCTCCCAGCTGATGAATTGTATACATCGAGTAAACAAATTTTCCTAATCTTTCTGTTCAAGCGCCATCTAC,2.35 RPM ratio (pull-down/input)
5,GATGATTGTTCTCCCAGCTGATGAATTGTTCTGGTCGAGTAAACAAATTTTCCTAATCTTTCTGTTCAAGCGCCATCTAC,1.12 RPM ratio (pull-down/input)
6,GATGATTGTTCTCCCAGCTGATGAATTCTGTGTGTCGAGTAAACAAATTTTCCTAATCTTTCTGTTCAAGCGCCATCTAC,1.18 RPM ratio (pull-down/input)
7,GATGATTGTTCTCCCAGCTGATGAATTTCGGCCATCGAGTAAACAAATTTTCCTAATCTTTCTGTTCAAGCGCCATCTAC,0.772 RPM ratio (pull-down/input)
8,GATGATTGTTCTCCCAGCTGATGAATTAAGTCTTTCGAGTAAACAAATTTTCCTAATCTTTCTGTTCAAGCGCCATCTAC,0.894 RPM ratio (pull-down/input)
9,GATGATTGTTCTCCCAGCTGATGAATTGTAGGCCTCGAGTAAACAAATTTTCCTAATCTTTCTGTTCAAGCGCCATCTAC,0.839 RPM ratio (pull-down/input)
10,GATGATTGTTCTCCCAGCTGATGAATTTGACTTGTCGAGTAAACAAATTTTCCTAATCTTTCTGTTCAAGCGCCATCTAC,0.82 RPM ratio (pull-down/input)
11,GATGATTGTTCTCCCAGCTGATGAATTCCTTAAATCGAGTAAACAAATTTTCCTAATCTTTCTGTTCAAGCGCCATCTAC,0.991 RPM ratio (pull-down/input)
12,GATGATTGTTCTCCCAGCTGATGAATTAACCGGTTCGAGTAAACAAATTTTCCTAATCTTTCTGTTCAAGCGCCATCTAC,0.868 RPM ratio (pull-down/input)
13,GATGATTGTTCTCCCAGCTGATGAATTGGAGGCGTCGAGTAAACAAATTTTCCTAATCTTTCTGTTCAAGCGCCATCTAC,0.961 RPM ratio (pull-down/input)
14,GATGATTGTTCTCCCAGCTGATGAATTTTTAGCTTCGAGTAAACAAATTTTCCTAATCTTTCTGTTCAAGCGCCATCTAC,0.925 RPM ratio (pull-down/input)
15,GATGATTGTTCTCCCAGCTGATGAATTAATCATATCGAGTAAACAAATTTTCCTAATCTTTCTGTTCAAGCGCCATCTAC,1.07 RPM ratio (pull-down/input)
16,GATGATTGTTCTCCCAGCTGATGAATTTATTTGATCGAGTAAACAAATTTTCCTAATCTTTCTGTTCAAGCGCCATCTAC,1.2 RPM ratio (pull-down/input)

row,Sequence,binding signal
1,GATGATTGTTCTCCCAGCTGATGAATTCTAGATCTCGAGTAAACAAATTTTCCTAATCTTTCTGTTCAAGCGCCATCTAC,0.764 RPM ratio (pull-down/input)
2,GATGATTGTTCTCCCAGCTGATGAATTAGTACACTCGAGTAAACAAATTTTCCTAATCTTTCTGTTCAAGCGCCATCTAC,1.17 RPM ratio (pull-down/input)
3,GATGATTGTTCTCCCAGCTGATGAATTGCGCGAATCGAGTAAACAAATTTTCCTAATCTTTCTGTTCAAGCGCCATCTAC,1.14 RPM ratio (pull-down/input)
4,GATGATTGTTCTCCCAGCTGATGAATTACTCGATTCGAGTAAACAAATTTTCCTAATCTTTCTGTTCAAGCGCCATCTAC,0.968 RPM ratio (pull-down/input)
5,GATGATTGTTCTCCCAGCTGATGAATTATACGGATCGAGTAAACAAATTTTCCTAATCTTTCTGTTCAAGCGCCATCTAC,0.95 RPM ratio (pull-down/input)
6,GATGATTGTTCTCCCAGCTGATGAATTCGCAGGCTCGAGTAAACAAATTTTCCTAATCTTTCTGTTCAAGCGCCATCTAC,0.738 RPM ratio (pull-down/input)
7,GATGATTGTTCTCCCAGCTGATGAATTGCCTTCCTCGAGTAAACAAATTTTCCTAATCTTTCTGTTCAAGCGCCATCTAC,0.941 RPM ratio (pull-down/input)
8,GATGATTGTTCTCCCAGCTGATGAATTTGAACTCTCGAGTAAACAAATTTTCCTAATCTTTCTGTTCAAGCGCCATCTAC,0.756 RPM ratio (pull-down/input)
9,GATGATTGTTCTCCCAGCTGATGAATTTAGGTGATCGAGTAAACAAATTTTCCTAATCTTTCTGTTCAAGCGCCATCTAC,1.02 RPM ratio (pull-down/input)
10,GATGATTGTTCTCCCAGCTGATGAATTATAGGCCTCGAGTAAACAAATTTTCCTAATCTTTCTGTTCAAGCGCCATCTAC,0.956 RPM ratio (pull-down/input)
11,GATGATTGTTCTCCCAGCTGATGAATTAGTACGTTCGAGTAAACAAATTTTCCTAATCTTTCTGTTCAAGCGCCATCTAC,1.01 RPM ratio (pull-down/input)
12,GATGATTGTTCTCCCAGCTGATGAATTCCTACCTTCGAGTAAACAAATTTTCCTAATCTTTCTGTTCAAGCGCCATCTAC,0.834 RPM ratio (pull-down/input)
13,GATGATTGTTCTCCCAGCTGATGAATTTGGTTACTCGAGTAAACAAATTTTCCTAATCTTTCTGTTCAAGCGCCATCTAC,1.01 RPM ratio (pull-down/input)
14,GATGATTGTTCTCCCAGCTGATGAATTCGCACGCTCGAGTAAACAAATTTTCCTAATCTTTCTGTTCAAGCGCCATCTAC,0.915 RPM ratio (pull-down/input)
15,GATGATTGTTCTCCCAGCTGATGAATTACTGACTTCGAGTAAACAAATTTTCCTAATCTTTCTGTTCAAGCGCCATCTAC,1.05 RPM ratio (pull-down/input)

# From PMC12820563, “FoxP3 forms a head-to-head dimer in vivo and stabilizes its multimerization on adjacent microsatellites”
